PubChem BioAssay AID651820 (National Center for Advancing Translational Sciences (NCATS), 2012)
About 12,000 (3.5%) of roughly 340,000 compounds were called active. Inconclusive means that the source gave no clear call. Such entries were picked first, then a sample of the others. The call rests on the fitted dose curve; in most records, active means well fitted inhibition curve with a large enough effect; inconclusive means small, poorly fitted or top-dose-only effect, or another doubt; inactive means no such curve, though single readings can be large or run the other way. No potency is given beside an inconclusive call; the fits are too rough. Some compounds were tested as several samples or in several runs, with calls that do not always agree.

Assay: qHTS Assay for Inhibitors of Hepatitis C Virus (HCV)
Conditions: Huh7.5.1 HCVcc-Cre (HCVcc is cell-culture hepatitis C virus) infection, luciferase reporter, 44 h; activity change, negative = inhibition: at 41.8 µM (top of the series) unless noted
In short: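 Whole-lifecycle infectious HCVcc-Cre system; cells 1,000/well, compound then virus (~0.5 moi) added 4 h after plating, 44 h culture. Luciferase read 15 sec following 15 min substrate incubation, room temp.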
On the % scale 0 is the no-effect control and ±100 the full control effect; potency means the concentration at half of the fitted maximal effect; tags describe the fitted curve by direction and shape.

Row | SMILES | activity change, negative = inhibition | Potency
1 | CCCCc1c(C)c2ccc(OCC(C)=O)cc2oc1=O | inactive: -22.9% | 
2 | O=C(NC12CC3CC(CC(C3)C1)C2)c1cc([N+](=O)[O-])ccc1Cl |  | inconclusive [inhibitor, partial curve]
3 | COc1ccccc1-n1cc(CN2CCN(CC=C(C)C)C(CCO)C2)cn1 (stereo unspecified) | inactive: 13.4% | 
4 | Cc1ccc(NC(=O)c2cc(-c3ccc(C)o3)nc3ccccc23)nc1 |  | inconclusive [inhibitor, single point]
5 | COc1cc(C(=O)NCc2cccs2)ccc1OCc1c(C)noc1C |  | inconclusive [inhibitor, partial curve]
6 | CCN(CC)CCNC(=O)CS(=O)Cc1nc(-c2ccc(Cl)cc2)oc1C (stereo unspecified) |  | inconclusive [inhibitor, single point]
7 | COc1cc(-c2nnc(SCc3cc(=O)oc4cc(C)ccc34)o2)cc(OC)c1OC |  | inconclusive [inhibitor, partial curve]
8 | CSC(=O)NC12CC3CC(CC(C)(C3)C1)C2 | inactive: 10.9% | 
9 | CC(C)N1CCN(Cc2ccc3c(c2)Cc2ccccc2-3)CC1CCO (stereo unspecified) |  | inconclusive [inhibitor, full curve]
10 | COc1ccc(/C=N/NC(=O)c2ccc(O)cc2)cc1CN1CCCc2ccccc21 |  | inconclusive [inhibitor, partial curve]
11 | CCOc1ccccc1-c1nc(-c2ccc(C)nc2OC)no1 |  | inconclusive [inhibitor, full curve, poor fit]
12 | COc1cc2ccccc2cc1C(=O)OCC(=O)N(CC(C)C)c1c(N)n(Cc2ccccc2)c(=O)[nH]c1=O |  | inconclusive [inhibitor, full curve, poor fit]
13 | Cc1ccc(NC(=O)Cc2nc(CN(C)CC(=O)Nc3ccc(C)cc3)cs2)cc1 |  | inconclusive [inhibitor, single point]
14 | Cc1cc(C)cc(NC(=O)C2CCCN2/C=C/C(=O)C(F)(F)F)c1 (stereo unspecified) | inactive: 5.38% | 
15 | CC(=O)C1=C(C)N(CC2CC2)C(=O)N[C@H]1c1ccc(Br)cc1 |  | inconclusive [inhibitor, single point]
16 | CCOC(=O)c1sc(=NC(=O)C2CC2)n(C)c1C | inactive: -7.52% | 
17 | CCOC(=O)[C@H]1[C@H]2COc3cc(OC)ccc3[C@@H]2N2C(=O)CN(Cc3ccc(OC)cc3)C(=O)[C@@]12C |  | inconclusive [inhibitor, single point]
18 | COc1ccccc1NC(=O)CN1CCC(c2nc3ccccc3[nH]2)CC1 |  | inconclusive [inhibitor, single point]
19 | O=c1c2cn(Cc3ccc(F)cc3)c3ccc(F)cc3c-2nn1Cc1ccc(F)cc1 | inactive: -3.57% | 
20 | Cc1ccn2cc(-c3cccc(NC(=O)c4ccccc4)c3)nc2c1 |  | inconclusive [inhibitor, single point]
21 | COc1ccc(C(C)=O)cc1COc1cccnc1[N+](=O)[O-] |  | inconclusive [inhibitor, single point]
22 | CC(C)(C)c1ccc(/C=C/C(=O)Nc2ccncc2)cc1 |  | inconclusive [inhibitor, single point]
23 | CCOc1ccccc1-c1nc(CN2CCN(C(=O)c3ccco3)CC2)c(C)o1 | inactive: -18.3% | 
24 | Cc1csc(NC(=O)Cc2nn(C)c(=O)c3ccccc23)n1 |  | inconclusive [inhibitor, partial curve]

Row | SMILES | activity change, negative = inhibition | Potency
25 | CCn1c2ccccc2c2cc(NC(=O)c3ccco3)ccc21 |  | active: 3.16 µM
26 | Cc1oc2ccc(NS(=O)(=O)c3ccccc3)cc2c1C(=O)Nc1ccccc1 | inconclusive: -36.1% [inhibitor] | 
27 | CCCc1nc(SCC(=O)c2ccc(F)cc2)c2ccccc2n1 |  | inconclusive [inhibitor, partial curve]
28 | O=C(Nc1ccncc1)Nc1cccc(Cl)c1Cl |  | active: 6.31 µM
29 | COCCOC(=O)c1c(C)n(C)c2ccc(OC(=O)c3c(OC)cccc3OC)cc12 |  | inconclusive [inhibitor, partial curve]
30 | Clc1ccc2nnnc(-c3ccccc3)c2c1 |  | active: 4.47 µM
31 | CSc1nnc(CSc2cc(C)nc(N(C)C)n2)o1 | inactive: -29.4% | 
32 | O=C(Cc1n[nH]c(=O)c2ccccc12)OCC(=O)c1ccc(OC(F)F)cc1OC(F)F | inactive: -26.8% | 
33 | COC(=O)c1ccc2nc(C)cc(Nc3ccc(N(C)C)cc3)c2c1 | inactive: -4.22% | 
34 | CCN(C(=O)CSc1nnc(Nc2ccc(OC)cc2)s1)C1CCS(=O)(=O)C1 (stereo unspecified) | inactive: -20.7% | 
35 | O=c1[nH]nc(-c2ccc(F)cc2)cc1Cc1ccccc1 | inactive: -5.49% | 
36 | COc1cc(/C=C2\SC(=S)N(CCC(=O)N3CCCCC3)C2=O)cc(OC)c1OC |  | inconclusive [inhibitor, single point]
37 | COc1cc(CNCCCCO)ccc1OCc1ccccc1F |  | inconclusive [inhibitor, partial curve]
38 | CC12CC(c3ccccc3O1)C(C(=O)N1CCOCC1)C(=O)N2 (stereo unspecified) | inactive: 23.9% | 
39 | COc1ccc(C2/C=C\CN(C(=O)Nc3ccccc3-c3ccccc3)CC(=O)N2Cc2ccc(F)cc2)cc1 (stereo unspecified) |  | inconclusive [inhibitor, single point]
40 | Cc1cc(C)c(C)c(S(=O)(=O)N2CCN(c3ncnc4ccccc34)CC2)c1C |  | active: 2.51 µM
41 | O=C(CSc1nc2ccccc2s1)Nc1cc(S(=O)(=O)N2CCOCC2)ccc1O | inactive: 5.24% | 
42 | CC(C)N(CCn1c(SCC(=O)Nc2cccnc2Cl)nc2ccccc2c1=O)C(C)C |  | inconclusive [inhibitor, single point]
43 | COc1ccccc1CCNC(=O)C(=O)NCC1OCCCN1S(=O)(=O)c1ccc(F)cc1C (stereo unspecified) |  | active: 10 µM
44 | COc1ccc(-c2csc(NC(=O)CN3C(=O)C4CC=CCC4C3=O)n2)cc1 (stereo unspecified) |  | inconclusive [inhibitor, single point]
45 | COCCN(C(=S)Nc1ccc(OC)c(Cl)c1)C1CCN(C(C)C)CC1 |  | inconclusive [inhibitor, partial curve]
46 | CC(=O)Oc1ccc(-c2cc3ccccc3oc2=O)cc1 |  | inconclusive [inhibitor, single point]
47 | O=C(Nc1ccc(CN2CCCCC2)cc1)c1c(F)c(F)c(F)c(F)c1F |  | inconclusive [inhibitor, single point]
48 | CCC(=O)Nc1ccc(C(=O)OCc2ccccc2Cl)cc1 | inactive: -13.6% | 

Row | SMILES | activity change, negative = inhibition | Potency
49 | Nc1c(C(=O)Nc2ccc3c(c2)OCCO3)nnn1Cc1cccc(Cl)c1 |  | inconclusive [inhibitor, single point]
50 | Cc1c(C(=O)NCc2ccc3c(c2)OCO3)oc2ccc(S(=O)(=O)N3CCCCCC3)cc12 |  | inconclusive [inhibitor, partial curve]
51 | Cc1ccc(C2(C)NC(=O)N(CC(=O)Nc3cc(S(=O)(=O)N4CCCCC4)ccc3OC(C)C)C2=O)cc1 (stereo unspecified) |  | inconclusive [inhibitor, single point]
52 | CN(C)c1nc(SCc2ccc(Cl)cc2)nc2c1CCCC2 |  | inconclusive [inhibitor, partial curve]
53 | NC(=O)CCN1CCN(CCOC2Cc3cc(Cl)ccc3Sc3ccccc32)CC1 (stereo unspecified) |  | active: 11.2 µM
54 | CCOC(=O)c1sc(NC(=O)CSc2nnc(-c3ccco3)n2CC)c(C(=O)OCC)c1C |  | active: 10 µM
55 | COc1ccc(N2CCN(C(=O)c3cn(CC4CCCCC4)nn3)CC2)cc1 |  | inconclusive [inhibitor, single point]
56 | COc1ccc(Nc2nc3nonc3nc2N2CCCCC2)cc1 |  | inconclusive [inhibitor, single point]
57 | CN(C)c1cccc2c1C(=O)c1ccccc1C2=O |  | inconclusive [inhibitor, partial curve]
58 | CCN1C(=NCc2ccc(OC)cc2)N[C@@H](CCc2ccccc2)[C@H](C(=O)NCc2ccc(OC)cc2)[C@H]1C |  | inconclusive [inhibitor, partial curve, poor fit]
59 | COc1ccc(C)cc1NC(=O)C(C)N(c1ccc(C)cc1)S(C)(=O)=O (stereo unspecified) | inactive: -19% | 
60 | O=c1[nH]c2ccccc2c(O)c1O |  | inconclusive [inhibitor, partial curve]
61 | CCCC1(c2ccccc2)NC(=O)N(CC(=O)Nc2cc(C)ccc2OC)C1=O (stereo unspecified) |  | inconclusive [inhibitor, partial curve]
62 | COc1ccc(-c2cccc(C3CC=CC4C3C(=O)N(Cc3ccccc3)C4c3ccc(C(F)(F)F)cc3)c2)cc1 (stereo unspecified) | inactive: -6.24% | 
63 | c1csc(CNc2ncnc3sccc23)c1 |  | inconclusive [inhibitor, full curve]
64 | c1ccc(Nc2nc3ccccc3[nH]2)nc1 | inactive: -1.92% | 
65 | COc1ccccc1CNC(=O)CN1C(=O)NC(C)(c2ccc(C(C)(C)C)cc2)C1=O (stereo unspecified) |  | inconclusive [inhibitor, partial curve, poor fit]
66 | O=C(C1CC1)N1CCCC(c2ccc(Cl)cc2)=N1 |  | inconclusive [inhibitor, single point]
67 | CCn1nc(C)cc1C(=O)N1CCCC(C(=O)c2ccc3ccccc3c2)C1 (stereo unspecified) |  | inconclusive [inhibitor, single point]
68 | CC(C)c1ccccc1OCC(=O)Nc1nnc(C2CC2)s1 | inactive: -4.24% | 
69 | Nc1c(C(=O)c2ccc(F)cc2)oc2ccccc12 |  | inconclusive [inhibitor, single point]
70 | Nc1ccc2c(c1)C(=NO)c1ccccc1-2 |  | inconclusive [inhibitor, full curve, poor fit]
71 | C=CCOc1ccc(CN(C)CC(O)COc2cccc3ccccc23)cc1 (stereo unspecified) |  | active: 31.6 µM
